This is one part of the list. The main result of the screen is listed elsewhere. These columns were measured beside it and carry no call. Peptide text beside a SMILES is read from it. * marks the point of attachment. AFC = O=c1cc(C(F)(F)F)c2ccc(N*)cc2o1

Assay in all cases: Primary Screen for Target Class Profiling of Small Molecule Inhibitors of Methyltransferases
Assay [1] has as its target Glycine N-methyltransferase (Homo sapiens) (UniProt Q14749). Conditions: purified enzyme, MTase-Glo SAH luminescence; measured here: GNMT inhibition; at 40 µM; stronger effect = lower value. The gist of the method:
(§1)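 Each enzyme was reacted with SAM and its substrate, with compounds tested once at 40 uM; SAH formed was read by MTase-Glo luminescence.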

Assay [2] deals with Guanidinoacetate N-methyltransferase (Homo sapiens) (UniProt Q14353). Conditions: purified enzyme, MTase-Glo SAH luminescence; measured here: GAMT inhibition; at 40 µM; stronger effect = lower value. The gist of the method: as §1
Assay [3] deals with Histamine N-methyltransferase (Homo sapiens) (UniProt P50135). As to conditions: purified enzyme, MTase-Glo SAH luminescence; measured here: HNMT inhibition; at 40 µM; stronger effect = lower value. In short, it runs like this:
as §1

The target in assay [4] is Nicotinamide N-methyltransferase (Homo sapiens) (UniProt P40261). Conditions: purified enzyme, MTase-Glo SAH luminescence; measured here: NNMT inhibition; at 40 µM; stronger effect = lower value. In short, it runs like this: as §1
Assay [5] concerns the target Phenylethanolamine N-methyltransferase (Homo sapiens) (UniProt P11086). Conditions: purified enzyme, MTase-Glo SAH luminescence; measured here: PNMT inhibition; at 40 µM; stronger effect = lower value. In short, it runs like this:
as §1
On the % scale 0 is the no-effect control and ±100 the full control effect.

As to `Cc1nn(CC(=O)NC(C)Cc2cnccn2)c(=O)n1CCc1ccccc1` (stereo not drawn), the activity change, negative = inhibition in assay [1] was -3.04%; in assay [2] it was -6.43%; in assay [3], -1.97%; in assay [4] it was -10.8%; in assay [5], -4.12%.
Regarding `COc1ccc(C[C@@H]2NC(=O)[C@@H]3C[C@@H](NC(=O)Nc4cccc(SC)c4)CCN3C2=O)cc1`, the activity change, negative = inhibition in assay [1] was -1.82%; in assay [2] it was -5.9%; in assay [3], 0.274%; in assay [4] it was -8.67%; in assay [5], -2.78%.
For `COC(=O)c1cc2n(n1)CC(C)(C(=O)NC1CCCCCC1)N(Cc1cccc(OC)c1)C2=O` (stereo not drawn), in that order: -7.04%, -3.63%, -10.7%, -9.3% and -3.65%.
The corresponding values for `COCCCN1C(=O)c2nc3ccccc3n2CC1(C)C(=O)NC1CCCC(C)C1C` (stereo not drawn) are 5.36%, 4.24%, 8.22%, 9.01% and 4.06%.
As to `NCCc1ccc(O)c(O)c1`, the activity change, negative = inhibition in assay [1] was -33.6%; in assay [2] it was 14.2%; in assay [3], -86.3%; in assay [4] it was -0.359%; in assay [5], -29.7%.
For `O=C(CSCC1CC1)N1CCC2(CCC(=O)N(CCCn3ccnc3)C2)CC1`, in that order: -7.91%, -8.5%, -7.3%, -11.1% and -0.161%.
For `COc1ccc(-c2cc3n(n2)CC(C)(C(=O)NC2CCCCC2)N(Cc2cccnc2)C3=O)cc1` (stereo not drawn), the activity change, negative = inhibition in assay [1] was 0.755%; in assay [2], 0%; in assay [3], 2.1%; in assay [4] it was 2.61%; in assay [5], -3.18%.
Consider `Cc1ccc(S(=O)(=O)c2nnn3c2nc(N2CCOCC2)c2cc(Cl)ccc23)cc1C`, for which the activity change, negative = inhibition was -9.4% in assay [1]; 2.88% in assay [2]; -2.36% in assay [3]; 1.28% in assay [4]; -9.13% in assay [5].
The corresponding values for `COc1ccccc1CN1C(=O)c2cc(C(C)(C)C)nn2CC1(C)C(=O)NC1CCCCC1` (stereo not drawn) are 0.238%, 3.31%, 5.04%, -1.3% and 1.77%.
For `CCn1c(=O)n(CC)c2cc(S(=O)(=O)Nc3cccc(C)c3)ccc21`, in that order: 10.5%, 0.673%, 10.3%, 0.755% and 9.5%.
For `Cc1cc(F)ccc1C(=O)N1CCn2nc(Cc3ccccc3)cc2C1`, in that order: -10.3%, -4.07%, -10.3%, -13.6% and -9.3%.
`CC(C)OCCCNC(=O)C1(C)Cn2cnc(C(=O)Nc3cccc(Cl)c3)c2C(=O)N1C1CC1` (stereo not drawn): the activity change, negative = inhibition in assay [1] is 0.481%; in assay [2], 0%; in assay [3], 10.5%; in assay [4], 6.08%; in assay [5] it was 3.72%.
For `CC(=O)N[C@@H](Cc1c[nH]c2ccccc12)C(=O)N[C@@H](CCC(=O)O)C(=O)N[C@@H](Cc1cnc[nH]1)C(=O)N[C@@H](CC(=O)O)C(=O)Nc1ccc2c(C(F)(F)F)cc(=O)oc2c1` (Ac-WEHD-{AFC}), in that order: 5.2%, 5.07%, 8.55%, -8.77% and 3.48%.
The corresponding values for `Cc1nn(-c2ccccn2)c(C)c1[C@@H]1C=C[C@@H](NC(=O)NC(C)C)C1` are -5.84%, -5.28%, -2.53%, -6.33% and -2.63%.
For `Cc1ccccc1C(=O)NCc1cccnc1Oc1cccc(C(F)(F)F)c1`, in that order: 3.55%, 0.431%, 0.411%, -1.84% and -16%.
In the case of `CCn1cnnc1CC1CCN(C(=O)c2nccc3ccccc23)C1` (stereo not drawn), the activity change, negative = inhibition in assay [1] is -2.12%; in assay [2], -0.088%; in assay [3] it was -0.697%; in assay [4], -9.79%; in assay [5], 11.7%.
For `C=C(C(=O)O)C1CC2=C(C)C(=O)CC2C(C)CC1O` (stereo not drawn), in that order: -0.093%, 3.12%, 11%, -5.09% and 7.95%.
As to `O=C1NCCOCCCN(C(=O)C2(c3ccccc3)CC2)[C@H]2CCCC[C@@H]12`, the activity change, negative = inhibition was -3.87% in assay [1]; -7.21% in assay [2]; -2.73% in assay [3]; -8.32% in assay [4]; -0.321% in assay [5].
The corresponding values for `C=C1CC[C@@H](O)[C@]2(C)CC[C@H]3C(=C)C(=O)O[C@@H]3[C@@H]12` are -1.56%, -3.01%, 5.05%, -9.32% and -0.235%.
The corresponding values for `C[C@@H]1O[C@@H](O[C@H]2[C@@H]3C=CO[C@@H](O[C@@H]4O[C@H](CO)[C@@H](O)[C@H](O)[C@H]4O)[C@@H]3[C@@]3(CO)O[C@@H]23)[C@H](O)[C@H](OC(=O)/C=C/c2ccccc2)[C@H]1O` are -0.668%, -2.8%, 3.71%, -11.7% and -0.973%.
For `C[C@H](Cc1ccc(O)c(O)c1)[C@@H](C)Cc1ccc(O)c(O)c1`, in that order: -93.7%, -18.7%, -23.6%, -18.2% and -13.1%.
Consider `CC(C)NC(=O)c1ccnc(-c2ccccc2S(=O)(=O)NC(C)(C)C)c1`, for which the activity change, negative = inhibition in assay [1] is -1.11%; in assay [2], -1.89%; in assay [3], -0.727%; in assay [4] it was -7.37%; in assay [5], -6.21%.
As to `CC(=O)SCC(=O)c1ccc(NS(=O)(=O)c2ccc(OCCCN(C)C)cc2)nc1`, the activity change, negative = inhibition in assay [1] was -2.68%; in assay [2] it was -8.04%; in assay [3], -11.4%; in assay [4], -17.7%; in assay [5], -5.57%.
`O=C(COC(=O)C(Cc1c[nH]c2ccccc12)NC(=O)c1ccc(Cl)cc1)c1ccc(Br)cc1` (stereo not drawn): the activity change, negative = inhibition in assay [1] is 0.487%; in assay [2], 4.29%; in assay [3], -3.23%; in assay [4], -11.3%; in assay [5] it was -6.88%.
The corresponding values for `COC(=O)c1ncn2c1C(=O)N(C(C)c1ccccc1)C(C)(C(=O)NC1CCCCCC1)C2` (stereo not drawn) are 7.84%, 1.26%, 3.82%, 6.93% and 5.38%.
For `CC(C)CCn1c(=O)c2ccccc2n2c(=O)n(Cc3ccc(Cl)cc3)nc12`, in that order: 1.61%, 0.763%, 5.49%, -4.86% and 2.87%.
For the molecule `CCOC(=O)c1c2c3c(cccc3[nH]c1=O)C(=O)c1ccccc1-2`, the figures for the activity change, negative = inhibition in assay [2], in assay [4] and in assay [5] were -3.49%, -21.2% and -2.84%, respectively.
Turning to `CCCn1c(=O)c2ccc(C(=O)NC3CCCC3)cc2n2c(=O)n(CC(=O)c3ccc(F)cc3F)nc12`, the activity change, negative = inhibition in assay [1] is -1.96%; in assay [2], 1.04%; in assay [3], -2.97%; in assay [4], -4.47%; in assay [5], -4.18%.
For `CC(C)c1ccc(S(=O)(=O)c2nnn3c2nc(N2CCOCC2)c2ccccc23)cc1`, in that order: -11.7%, 1.95%, -4.77%, -11.1% and -11.2%.
